The structures appear in SMILES notation. Out of some 310,000 compounds screened, about 14,000 (4.5%) showed an effect of 50% or more. The effect is printed as a negative number. The list shows a part of the results.

This is an account of results in publication PMC4336329 (PLoS ONE, 2015).
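Further: peak tail current of the secondary pulse compared with the same well before compound.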

Sequence of human ether-à-go-go-related gene (hERG) potassium channel (Q12809 whole entry, looked up): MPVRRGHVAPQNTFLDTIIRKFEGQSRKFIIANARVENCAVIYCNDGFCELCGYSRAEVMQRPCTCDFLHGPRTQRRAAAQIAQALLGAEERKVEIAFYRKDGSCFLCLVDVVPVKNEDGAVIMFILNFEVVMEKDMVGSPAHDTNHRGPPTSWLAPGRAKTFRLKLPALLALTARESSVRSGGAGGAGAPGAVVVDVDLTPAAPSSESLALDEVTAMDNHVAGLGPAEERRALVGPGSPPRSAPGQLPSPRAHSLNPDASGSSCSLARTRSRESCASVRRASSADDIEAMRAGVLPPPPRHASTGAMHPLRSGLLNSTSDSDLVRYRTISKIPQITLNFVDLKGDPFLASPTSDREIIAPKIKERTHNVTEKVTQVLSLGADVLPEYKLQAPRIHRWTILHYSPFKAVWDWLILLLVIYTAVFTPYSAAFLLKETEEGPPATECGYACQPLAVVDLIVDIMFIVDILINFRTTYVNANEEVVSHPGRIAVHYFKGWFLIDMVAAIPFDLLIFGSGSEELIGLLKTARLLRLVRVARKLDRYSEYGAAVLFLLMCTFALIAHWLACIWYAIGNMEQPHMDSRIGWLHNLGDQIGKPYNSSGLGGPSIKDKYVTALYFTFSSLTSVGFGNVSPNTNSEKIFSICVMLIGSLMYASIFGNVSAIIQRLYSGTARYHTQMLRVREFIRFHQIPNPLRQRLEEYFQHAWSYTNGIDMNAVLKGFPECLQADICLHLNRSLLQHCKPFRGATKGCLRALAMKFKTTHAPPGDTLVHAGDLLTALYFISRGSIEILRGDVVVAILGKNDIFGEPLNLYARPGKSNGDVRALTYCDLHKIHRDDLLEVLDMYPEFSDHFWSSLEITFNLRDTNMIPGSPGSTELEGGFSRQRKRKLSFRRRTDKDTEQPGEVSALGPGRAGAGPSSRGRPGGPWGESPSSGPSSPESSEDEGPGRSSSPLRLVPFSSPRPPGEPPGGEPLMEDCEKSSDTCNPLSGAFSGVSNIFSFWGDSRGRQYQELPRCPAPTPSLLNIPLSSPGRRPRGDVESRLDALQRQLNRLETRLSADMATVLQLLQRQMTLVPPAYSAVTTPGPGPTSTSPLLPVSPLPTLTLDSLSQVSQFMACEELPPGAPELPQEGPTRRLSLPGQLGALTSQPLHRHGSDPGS

The experiment has as its target human ether-à-go-go-related gene (hERG) potassium channel (human, UniProt Q12809). Kind of experiment: primary screen, population patch clamp on CHO cells stably expressing hERG.
With `COC(=O)c1ccccc1S(=O)(=O)N1CCC(C(=O)OC(C)C(=O)Nc2ccccc2OC)CC1` (stereo not drawn), the “hERG current change (%, negative = inhibition) at 10uM” value is recorded as -51.3%. The result for `O=C(Nc1ncc(S(=O)(=O)c2ccc([N+](=O)[O-])cc2)s1)c1cccnc1` reads -2.29%. Under `COc1ccc2c(c1)c(=O)c(C(=O)c1ccccc1)cn2Cc1ccccc1` stands -71.8%.

On to `CCN(c1ccc(OC)cc1)S(=O)(=O)c1nnc(NC(=O)C2CCCCC2)s1`, for which the “hERG current change (%, negative = inhibition) at 10uM” value was found to be 12.2%. The result for `COc1nc(-c2ccc(Cl)cc2)ccc1-c1noc(-c2ccco2)n1` reads 16.8%. Under `COc1cccc(NS(=O)(=O)c2cc3c(cc2C)N(C(C)=O)CCO3)c1` stands 5.83%. As to `Clc1cc2c(c(CSc3nc4ccccc4n4cccc34)c1)OCOC2`, the “hERG current change (%, negative = inhibition) at 10uM” value came out at 19.4%. Under `NS(=O)(=O)c1ccc(CCNC(=S)Nc2ccc(F)cc2)cc1` stands 6.41%. Under `CN(C)CCn1c(NCc2ccc3c(c2)OCO3)nc2ccccc21.Cl` stands -59.5%; under `CCNCCNC(=O)c1c(O)c2c([nH]c1=O)CCCC2`, 8.43%; under `Cc1ccccc1NC(=O)Cc1nc(COC(=O)c2ccc(O)cc2O)cs1`, -5.83%. As for `Cc1cc2cc(CCNS(=O)(=O)c3ccc(F)cc3)c(=O)[nH]c2cc1C`, the “hERG current change (%, negative = inhibition) at 10uM” value is 5.91%. Under `CC(C)S(=O)(=O)c1cnc(-c2cccnc2)nc1N` stands 12.6%; under `C/C(=N\NC(=O)NC1CCCCC1)C1CCCCC1`, 4.01%. For `COC(=O)CSc1nnc(NC(=O)C2CC(=O)N(c3ccc(F)cc3)C2)s1` (stereo not drawn), the “hERG current change (%, negative = inhibition) at 10uM” value stood at 11.8%.

With `CCOc1ccc(-c2nnn(CC(=O)NCc3cccs3)n2)cc1`, the “hERG current change (%, negative = inhibition) at 10uM” value was 1.14%. The result for `CC(C)(C)c1ccc(C(=O)OCC(=O)N2CCC(c3ccccc3)=N2)cc1` reads -5.9%. The result for `O=C(c1ccccc1)c1n[nH]c(-c2ccccc2)cc1=O` reads 30.9%; that for `CC(C)(C)C(=O)Nc1nc2c(s1)COc1ccccc1-2`, -30.9%; that for `COc1ccc(C(=O)NCC(=O)NC2=NCCS2)cc1`, 9.41%.

As for `CCOC(=O)C1CCCN(S(=O)(=O)c2ccc(Cl)nc2)C1` (stereo not drawn), the “hERG current change (%, negative = inhibition) at 10uM” value is on record as -10%. As to `COc1ccc(/C=N/NC2=NCCCCC2)cc1`, the “hERG current change (%, negative = inhibition) at 10uM” value is reported as -43.7%. On to `O=C(Cn1cnc2c(nnn2Cc2ccccc2)c1=O)N1CCCc2ccccc21`, for which the “hERG current change (%, negative = inhibition) at 10uM” value stood at 3.38%. As for `Cl.Nc1scc(-c2ccncc2)c1Cl`, the “hERG current change (%, negative = inhibition) at 10uM” value was -7.37%. `COc1ccccc1CCNC(=O)C(=O)NCC1OCCN1S(=O)(=O)c1cccs1` (stereo not drawn): the “hERG current change (%, negative = inhibition) at 10uM” value is recorded as -1.48%.

For `CC(C)(C)NC(=O)C(c1ccncc1)N(CC1CCCO1)C(=O)Cn1nnc(-c2ccc(F)cc2)n1` (stereo not drawn), the “hERG current change (%, negative = inhibition) at 10uM” value is given as -3.33%. Take `CCSc1ncc(/C=N/Nc2ccc(Cl)cc2)n1C`: the “hERG current change (%, negative = inhibition) at 10uM” value is reported as -10.2%.

With `O=C(CN(C(=O)c1csnn1)c1cccc2ccccc12)NCc1ccccc1`, the “hERG current change (%, negative = inhibition) at 10uM” value worked out at 0.271%.

With `O=C(OCc1nc2scc(-c3ccccc3)c2c(=O)[nH]1)c1ccco1`, the “hERG current change (%, negative = inhibition) at 10uM” value was -21.7%. The result for `COc1ccc(NC(=O)CN(C)C(=O)CN2C(=O)NC3(CCCC3)C2=O)cc1` reads -0.152%.

For the compound `CCCCCCOc1ccc(N2C(=O)CC(NCCc3ccc(S(N)(=O)=O)cc3)C2=O)cc1` (stereo not drawn), the “hERG current change (%, negative = inhibition) at 10uM” value is recorded as 14.1%. As to `CCNS(=O)(=O)c1ccc(NC(=O)Nc2ccccc2OC)cc1`, the “hERG current change (%, negative = inhibition) at 10uM” value came to 1.05%.

Turning to `COc1ccc(/C=N/Nc2nc(-c3cccnc3)nc3ccccc23)c(OC)c1`, the “hERG current change (%, negative = inhibition) at 10uM” value was 7.71%. Under `O=C(Cn1cnc([N+](=O)[O-])n1)NCCc1ccccc1` stands 12.9%; under `C=C1CC2C(CCC3(C)C2CCC3(O)C(C)=O)C2(C)CCC(=O)C=C12` (stereo not drawn), 23.3%; under `C=C1CC[C@@]2(O)[C@H]3Cc4ccc(O)c5c4[C@@]2(CCN3CC2CC2)[C@H]1O5`, -2.73%. Under `CN(CC(O)COc1ccc(S(=O)(=O)N2CCOCC2)cc1)C1CCCCC1` (stereo not drawn) stands -6.74%. The result for `COCCNS(=O)(=O)c1cc(C(=O)O)ccc1OC` reads 15.9%; that for `CCOC(=O)c1[nH]cnc1C(=O)Nc1ccccc1OC`, -2.79%. As to `Cc1cccc2c(-c3ccccc3)cc(=O)[nH]c12`, the “hERG current change (%, negative = inhibition) at 10uM” value was -10.1%. The result for `O=C(CC(c1ccccc1)c1ccccc1O)NCCN1CCOCC1` (stereo not drawn) reads 3.63%; that for `N/C(=N\OC(=O)CCCc1ccccc1)c1ccc(Br)cc1`, 14.5%. The result for `C=CCOC(=O)C1=C(C)OC(N)=C(C#N)C1c1ccc(OC)c(CSc2ccccn2)c1` (stereo not drawn) reads -0.628%; that for `O=C(CCCC(=O)OCC(=O)c1ccc(Cl)cc1Cl)Nc1cc(C(F)(F)F)ccc1Cl`, -3.09%; that for `O=C1C(=O)N(CCCO)C(c2ccccc2)/C1=C(\O)c1ccc(Br)cc1` (stereo not drawn), 16.7%. Turning to `O=C1NC(=O)N(Cc2ccco2)C(=O)/C1=C\c1ccc(-c2ccc(F)cc2)o1`, the “hERG current change (%, negative = inhibition) at 10uM” value turned out to be 29.3%. On to `CCOC(=O)c1ccc(NC(=O)CN2C(=O)C3C4C=CC(C4)C3C2=O)cc1` (stereo not drawn), for which the “hERG current change (%, negative = inhibition) at 10uM” value came to 2.3%. With `O=C(O)CCS(=O)(=O)c1ccc(-c2ccccc2)cc1`, the “hERG current change (%, negative = inhibition) at 10uM” value is on record as 19.3%. The result for `COc1ccc(NC(=O)C2CCCN(S(=O)(=O)c3ccccc3)C2)c(OC)c1` (stereo not drawn) reads -19.6%; that for `O=C(COc1ccc(Cl)cc1Cl)NC(=O)N1CCOCC1`, -12.8%; that for `O=C(Cc1csc(Nc2nc(=S)[nH]c3ccccc23)n1)NCCCN1CCN(c2cccc(Cl)c2)CC1`, 5.03%. Take `O=C(CSc1nnc(C2CCCCC2)n1Cc1ccccc1)NCc1ccco1`: the “hERG current change (%, negative = inhibition) at 10uM” value is -25.8%. For `CC(=O)c1ccc(NC(=O)c2ccn(C(=O)OCC(C)C)n2)cc1`, the “hERG current change (%, negative = inhibition) at 10uM” value is listed as -10.1%. For `c1ccc2c(c1)ccc1nnc(-c3ccc4c(c3)OCO4)n12`, the “hERG current change (%, negative = inhibition) at 10uM” value worked out at 3.86%. `CC(=O)N1CN2CN(C(C)=O)CC(C(=O)c3ccc(Br)cc3)(C2)C1`: the “hERG current change (%, negative = inhibition) at 10uM” value is recorded as -5.51%. The result for `O=C(CCN1CCOCC1)N/N=C/c1cc(Br)cc(Br)c1O` reads 6.51%; that for `Cc1ccc(C(=O)NNC(=O)CSc2nnc(C(C)C)n2C)cc1`, 20.9%; that for `O=C(CCc1ccccc1)Nc1ccccc1C(=O)NCc1ccco1`, 0.64%. Regarding `CC(C)(C)c1nc(CN2CCOCC2)ccc1O.Cl`, the “hERG current change (%, negative = inhibition) at 10uM” value is reported as -15.2%. The result for `O=C(Nc1ccc2ccccc2c1)c1ccc(Cl)cc1` reads 22.9%; that for `COc1ccccc1CC(=O)NNS(=O)(=O)c1ccc([N+](=O)[O-])cc1`, 14.5%. On to `O=C(COC(=O)c1cccs1)NCCCc1ccccc1`, for which the “hERG current change (%, negative = inhibition) at 10uM” value was 6.2%. Under `CC(=Nc1ccc(C)c(C)c1)C1=C(O)CSC1=O` stands 13.6%.

Regarding `COCCC(=O)N1CCC(Oc2ccc(C(=O)N(C)CCCC3CCCC3)cc2)CC1`, the “hERG current change (%, negative = inhibition) at 10uM” value is -30.4%.

For `O=C(CN1C2=NCCCN2c2ccccc21)c1cccs1`, the “hERG current change (%, negative = inhibition) at 10uM” value is given as -18.4%. Under `CC(C)C12CN3CC(C(C)C)(CN(C1)C3c1ccccc1O)C2=O` (stereo not drawn) stands -0.361%; under `COc1ccccc1N=CC1=C(O)CC(c2ccccc2)CC1=O` (stereo not drawn), 14.1%; under `CCCc1n(CC(O)COCc2ccccc2)c2ccccc2[n+]1C.[I-]` (stereo not drawn), 3.92%. `Oc1[nH]c2ccc(Br)cc2c1N=Nc1ccc(C(F)(F)F)cn1`: the “hERG current change (%, negative = inhibition) at 10uM” value worked out at 13.6%. Consider `O=C(Cn1cc[n+](CC(=O)c2ccc(Cl)cc2Cl)c1)c1ccc(Cl)cc1Cl.[Br-]`, for which the “hERG current change (%, negative = inhibition) at 10uM” value is recorded as -61.5%. The result for `COc1ccc(CNc2oc(-c3ccccc3)nc2C#N)cc1` reads -3.26%. Under `CN(C)CCCNc1cn[nH]c(=O)c1Cl` stands -4.97%; under `COc1cccc(C(=O)N2CCN(S(C)(=O)=O)CC2)c1`, 9.24%; under `CCN(C(=O)COC(=O)c1oc2ccccc2c1C)c1c(N)n(Cc2ccccc2)c(=O)[nH]c1=O`, 15.7%.

In the case of `O=C(NCC1CCCCC1)c1cccnc1Cl`, the “hERG current change (%, negative = inhibition) at 10uM” value amounted to 21.9%. For `O=C(COC(=O)CCc1c[nH]c2ccccc12)NCc1ccccc1`, the “hERG current change (%, negative = inhibition) at 10uM” value is on record as 4.6%.

Turning to `COc1cc(-c2cc(C(=O)O)c3cc4c(cc3n2)OCCO4)cc(OC)c1OC`, the “hERG current change (%, negative = inhibition) at 10uM” value is -32.5%.

On to `O=C(Nc1ccc2c(c1)OCO2)c1ccccc1SCC(=O)N1CCCC1`, for which the “hERG current change (%, negative = inhibition) at 10uM” value was found to be 5.23%. In the case of `O=C(O)c1cc(Cl)nc2ccccc12`, the “hERG current change (%, negative = inhibition) at 10uM” value was found to be 16.1%. Under `CCOC(=O)C(NC(=O)c1ccccc1)(Nc1cccc(C)n1)C(F)(F)F` (stereo not drawn) stands 0.965%; under `CCCc1cc(=O)[nH]c2nnc(SCC(=O)Nc3nnc(SCC)s3)n12`, 10.2%; under `Cc1cc(NC(=O)c2ccccc2[N+](=O)[O-])ccc1Br`, -1.44%.

For the compound `O=C(CN1CCN(c2ccccn2)CC1)Nc1ccc(OC(F)(F)F)cc1`, the “hERG current change (%, negative = inhibition) at 10uM” value is listed as -29.9%. The result for `O=C(Nc1ccncc1)c1ccc2ccccc2c1` reads -7.01%; that for `N#CN=C1CCCCCN1CC(N)=O`, -2.75%. In the case of `COc1ccccc1C(=O)Nc1cccc(S(=O)(=O)N2CCCC2)c1`, the “hERG current change (%, negative = inhibition) at 10uM” value came out at 14.7%. Under `CCOC(=O)CSc1nnc(CNC(=O)c2ccco2)n1-c1ccc(F)cc1` stands -12.2%; under `Cc1cccc(C)c1NC(=O)CN(C1CCCCC1)S(C)(=O)=O`, 15.6%. Take `Cc1ccc(C(=O)O)cc1NC(=S)NC(=O)c1ccc(COc2ccccc2)cc1`: the “hERG current change (%, negative = inhibition) at 10uM” value came to 14%. The result for `CCOC(=O)C1CCCN(C(=O)c2ccc3nc(-c4cccc(OC)c4)oc3c2)C1` (stereo not drawn) reads -28.6%.
